In all, about 390,000 compounds went through this assay and about 930 (0.24%) were called active. Inconclusive means that the source gave no clear call. Such entries were picked first, then a sample of the others. The call rests on the fitted dose curve; in most records, active means well fitted activation curve with a large enough effect; inconclusive means small, poorly fitted or top-dose-only effect; inactive means no such curve, though single readings can be large or run the other way. Where the call is inconclusive, the potency comes from a doubtful curve fit.
Assay: qHTS for Suppressors of FUS Proteinopathy: Primary screen using FUS-linked yeast assay; further: nearly all actives have a fitted effect of over 55% in size;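 on growth rescue (activation): plate controls were DMSO vehicle for no effect and reference control for full effect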
Settings: S. cerevisiae FUS-expressing, OD600, 24 h; Potency: growth rescue; growth rescue (activation): at 76.6 µM (top of the series)
Source text: Several widespread neurodegenerative diseases, including Alzheimer disease, Huntington disease, Frontotemporal Lobar Degeneration (FTLD) and Amyotrophic Lateral Sclerosis (ALS), share a common pathological feature, namely accumulation of specific protein aggregates in diseased tissue. These diseases which is associated with protein misfolding (proteinopathies) have become increasingly problematic as the population ages and life expectancies are extended. Most proteinopathies are currently incurable, a situation confounded by the fact that the basis of neurodegeneration is generally poorly understood. There exists urgent and significant need to find therapeutics that can inhibit the toxicity associated with protein aggregation. A novel approach to understand the underlying mechanisms of neurodegenerative diseases has recently emerged in which the disease conditions are modeled in the yeast (Saccharomyces cerevisiae), a tractable eukaryotic organism with conserved protein quality control mechanisms. Yeast offers quick and reliable genetic manipulations and can be easily tailored to high-throughput screening (HTS).
For this project, a yeast model of the FUS proteinopathies (a spectrum of neurodegenerative diseases that include ALS and a subtype of FTLD) was generated and employed. The cytoplasmic accumulation of the DNA/RNA-binding protein FUS (also known as TLS) is causative to both familial and sporadic forms of ALS and FTLD. This yeast model recapitulates neuronal pathology by showing severe cytotoxicity associated with cytoplasmic accumulation of FUS aggregates and a specific interaction between FUS and TDP-43, another ALS-associated protein. […] Specifically, the cellular accumulation of misfolded FUS that disrupts RNA homeostasis in both yeast and higher eukaryotes. This model was validated to be suitable for quantitative HTS (qHTS) use for finding genetic or chemical factors that restore growth. […] Identified compounds that inhibits FUS-yeast toxicity is flagged, re-acquired, and validated for further investigation and optimization.
NIH Chemical Genomics Center [NCGC]
NIH Molecular Libraries Probe Production Centers Network [MLPCN]
Assay Submitter (PI): Frank Shewmaker PhD, Uniformed Services University of the Health Sciences
Compound CP55940 was used as the positive control. Column 1 was treated with CP55940 titration from 92uM (final concentration, 1:2 dilution), while Column 2 was treated with top dose 92uM. Columns 3 and 4 were treated with DMSO only as negative control to assess background and noise signal.
Four hundred fifty microliter of cultured yeast (in 20mL rich medium) provided by Dr. Shewmaker lab was incubated at 30C at 99% humidity for 3hr. The culture was then spun down at 4000rpm for 5min and the cell pellet was resuspended in 2mL of Sdmin Media + ALU(330) + 2.5% Raffinose. One hundred microliter of the suspension was added to 900uL of water and OD of the solution was obtained. Twenty mL of responding medium (provided by Shewmaker lab) + 2.5% raffinose was added to ensure cell density of 0.1; the solution was incubated overnight. Working cell solution (FUS-yeast in Sdmi + Sdmi + 1X ALU + 2% galactose media) was prepared (final OD at 0.005) and 3uL was dispensed in a 1536-well Aurora high based clear bottom assay plates. Controls and library compounds (at various final concentrations from 40uM to 0.32uM) were added using a 1536-well pin array using the Kalypsys pin-tool. The plates were then incubated for 24hrs in a cell-culture incubator (30C; 99% humidity). Absorbance at 600nm was then read using the PerkinElmer ViewLux plate reader.
In the case of `COc1ccc(N2CCN(S(=O)(=O)CCNC(=O)COc3ccccc3)CC2)cc1`, the “growth rescue (activation)” value is reported as inactive: 2.88%.
For `Cc1ccc(S(=O)(=O)N2C[C@H]3[C@H]4C(=O)N(Cc5ccccc5)C(=O)[C@H]4CC(=O)[C@H]3[C@@H]2c2ccccc2F)cc1`, the Potency was active: 17.8 µM.
With `COc1ccc(-c2ccc([C@H]3[C@H]4C=CC[C@@H](C)[C@@H]4C(=O)N3Cc3ccccc3)c(F)c2)cc1OC` the Potency was inconclusive: 31.6 µM [activator, partial curve, poor fit].
With `Cc1ccc(-c2c[n+](CC(=O)Nc3nc(-c4ccccc4)cs3)c3n2CCC3)cc1` the Potency was inconclusive: 15.8 µM [activator, partial curve].
In the case of `COc1cccc(CNc2ccc(N3CCCCC3)cc2)c1OC`, the Potency is reported as inconclusive: 35.5 µM [activator, single point].
With `O=C(Cn1cc(SCc2ccccc2)c2ccccc21)N1CCCCCC1` the Potency was inconclusive: 20 µM [activator, partial curve].
For `COc1ccc(NC(=S)N2CCc3cc(OC)c(OC)cc3C2)cc1`, the Potency was inconclusive: 31.6 µM [activator, single point].
For `COc1ccc(-n2nc(C(=O)NCCc3ccc(OC)c(OC)c3)c3c4ccccc4n(C)c3c2=O)cc1Cl`, the “growth rescue (activation)” value was inactive: -7.19%.
With `CC(=O)CSc1nc2ccc(Nc3nc(N4CCOCC4)nc(N4CCOCC4)n3)cc2s1` the Potency was inconclusive: 35.5 µM [activator, partial curve, poor fit].
In the case of `Cc1nn(CCCC(=O)NCc2cccc(Cl)c2)c(=O)c2c1sc1ccccc12`, the “growth rescue (activation)” value is reported as inactive: -16%.
For `Cc1ccc(C2c3[nH]c4ccccc4c3C[C@H]3C(=O)N(c4ccccc4C(=O)NCCCN4CCOCC4)C(=O)N23)cc1` (some centres undefined), the Potency was inconclusive: 31.6 µM [activator, single point].
With `Cc1ccc(F)cc1NC(=O)c1ccc(Cn2nc(N3CCN(c4ccccc4)CC3)ccc2=O)o1` the Potency was inconclusive: 28.2 µM [activator, single point].
For `Cc1ccccc1CN1C(=O)CS/C1=N/N=C/c1ccco1`, the “growth rescue (activation)” value was inactive: 51.3%.
For `Cc1ccc(NC(=O)CN2C(=O)CCn3nc(-c4cccn4C)cc32)c(Cl)c1`, the Potency was inconclusive: 31.6 µM [activator, partial curve, poor fit].
For `Cc1ccc(N2C(=O)N3[C@H](c4ccc(Br)cc4)[C@@H]4C(=O)N(C(C)(C)C)C(=O)[C@@H]4[C@]3(C)C2=O)cc1`, the Potency was inconclusive: 50.1 µM [activator, single point].
In the case of `CCc1c(-c2ccc(Br)cc2)ncn1Cc1cccc(-c2ccccc2)c1`, the Potency is reported as inconclusive: 7.08 µM [activator, full curve].
For `CN(C)c1ccc(NC(=O)CN2C(=O)c3ccccc3Sc3ccc(C(=O)N4CCCC4)cc32)cc1`, the Potency was inconclusive: 35.5 µM [activator, partial curve, poor fit].
With `C=CCn1c(=O)c2ccccc2n2c(SCC(=O)Nc3sc(C)c(CC)c3C(=O)OCC)nnc12` the “growth rescue (activation)” value was inactive: 25.4%.
For `Cc1ccc(C(=O)O)cc1-c1ccc(/C=C2\SC(=O)N(CC(=O)Nc3ccc4c(c3)OCO4)C2=O)o1`, the Potency was inconclusive: 10 µM [activator, partial curve, poor fit].
With `COc1ccc2c(c1)C[C@@H]1CC(C)(C)CN1S2(=O)=O` the “growth rescue (activation)” value was inactive: -8.31%.
With `CCn1c(SCC(=O)Nc2sc3c(c2C#N)CCCC3)nnc1-c1ccncc1` the Potency was inconclusive: 39.8 µM [activator, single point].
In the case of `Cn1c(=O)c2cc(NC(=S)NC3CCCCC3)ccc2n1Cc1ccc(Cl)cc1`, the Potency is reported as inconclusive: 50.1 µM [activator, single point].
In the case of `Cc1nc(N2CCCC2)c2nnn(Cc3ccccc3Cl)c2n1`, the Potency is reported as inconclusive: 28.2 µM [activator, partial curve, poor fit].
In the case of `NC(=S)N/N=C/c1ccccc1[N+](=O)[O-]`, the “growth rescue (activation)” value is reported as inactive: 12.2%.
For `CCn1c(NCCO)nc2c(c1=O)C(C)(CC)Cc1ccccc1-2` (centres undefined), the Potency was inconclusive: 35.5 µM [activator, single point].
In the case of `Cc1noc(C)c1COc1ccc(C(=O)Nc2nnc(CC(C)C)s2)cc1`, the “growth rescue (activation)” value is reported as inactive: 5.38%.
For `Cc1ccc2c(c1)sc[n+]2Cc1ccccc1`, the Potency was inconclusive: 28.2 µM [activator, single point].
For `CC1(C)CC(=O)c2c(noc2-c2ccccc2)C1`, the Potency was inconclusive: 56.2 µM [activator, partial curve, poor fit].
In the case of `O=C(NCCCN1CCOCC1)C(=O)NCC1OCCCN1S(=O)(=O)c1cc(F)ccc1F` (centres undefined), the Potency is reported as inconclusive: 44.7 µM [activator, single point].
In the case of `COc1ccccc1NC(=O)CSc1nc2ccccc2c(=O)n1CCNC(C)=O`, the Potency is reported as inconclusive: 2.82 µM [activator, full curve].
For `COc1ccc(Cl)cc1N1C(=O)/C(=C/c2sccc2C)N=C1SCC(=O)NC1CC1`, the Potency was inconclusive: 44.7 µM [activator, partial curve, poor fit].
For `CCOc1cc(O)c(-c2[nH]ncc2-c2nc(C)cs2)cc1CC`, the Potency was inconclusive: 44.7 µM [activator, single point].
For `CCOc1ccc2oc(=O)cc(CN3CCN(Cc4ccc(F)cc4)CC3)c2c1`, the “growth rescue (activation)” value was inactive: -8.35%.
With `COc1ccc(-c2nnc(SCC(=O)NCCc3ccccc3)o2)cc1` the Potency was inconclusive: 8.91 µM [activator, partial curve, poor fit].
In the case of `O=C(Nc1ccc2c(c1)CCC2)c1cccc(F)c1`, the “growth rescue (activation)” value is reported as inactive: -2.13%.
For `CCCOc1ccc(C(=O)CCC(=O)OCC(=O)N2CCN(S(=O)(=O)c3ccc(C)cc3C)CC2)cc1`, the Potency was inconclusive: 10 µM [activator, partial curve].
With `O=C(NN=Cc1ccc([N+](=O)[O-])cc1)c1ccncc1` the Potency was inconclusive: 35.5 µM [activator, partial curve].
In the case of `Cc1cc(NC(=O)OC(C)(C)C)c(-n2nnnc2C(C(=O)c2ccc3c(c2)OCO3)N2CCN(c3ccccn3)CC2)cc1C` (centres undefined), the Potency is reported as inconclusive: 12.6 µM [activator, partial curve, poor fit].
In the case of `O=C(N[C@@H]1C/C=C\C[C@H](CC(=O)N(CCO)Cc2ccccc2)C(=O)N[C@@H](Cc2c[nH]c3ccccc23)COC1=O)OCC1c2ccccc2-c2ccccc21`, the Potency is reported as inconclusive: 25.1 µM [activator, single point].

From PubChem BioAssay AID1347120 (National Center for Advancing Translational Sciences (NCATS), 2019)
Potency means the concentration at half of the fitted maximal effect; tags describe the fitted curve by direction and shape.
